Measurements published in the supplement of paper PMC4466236.
Whole data set: some 33,000 sequences, median “E-score (dimensionless, -0.5 to 0.5)” near -0.058, cut for the highest 2% near 0.35. The list shows a part of the results.

What follows are sequences tested on MvaT (assay: PBM 8-mer E-score (mean of HK and ME arrays) (E-score (dimensionless, -0.5 to 0.5)); higher = stronger relative binding preference; most listed sequences are background and not binding sites).
Outline: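 Reported values are rank-based E-scores, taken as the mean of two universal arrays and parsed with a custom script. Each 8-mer score falls between -0.5 and 0.5. The arrays, ME and HK, were double-stranded 60-mers with a constant 25-mer primer region and a variable 35-mer region covering all 8-mers. They were probed, by an earlier protocol, with full-length P. aeruginosa MvaT carrying an N-terminal glutathione S-transferase fusion.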
With ACCTTCGT the “PBM 8-mer E-score” value was -0.257. In the case of AGGGTGTG, the “PBM 8-mer E-score” value is reported as -0.0556. In the case of GAGTCGGC, the “PBM 8-mer E-score” value is reported as -0.191. AATCCGCC was tested, and the “PBM 8-mer E-score” value was -0.0734. For AAATGCTT, the “PBM 8-mer E-score” value was 0.194. CCGATCGG was tested, and the “PBM 8-mer E-score” value was -0.199. CTCCATGC was tested, and the “PBM 8-mer E-score” value was -0.162. GTTCGGAA was tested, and the “PBM 8-mer E-score” value was -0.00248. For GGCTAGGA, the “PBM 8-mer E-score” value was -0.228. In the case of ACGTTAGT, the “PBM 8-mer E-score” value is reported as 0.121. For CCCCTTCA, the “PBM 8-mer E-score” value was -0.324. In the case of TCAGCACA, the “PBM 8-mer E-score” value is reported as -0.0457. In the case of ACGGATGA, the “PBM 8-mer E-score” value is reported as -0.215. In the case of ATCCAGAT, the “PBM 8-mer E-score” value is reported as 0.0948. CAGCTCAC was tested, and the “PBM 8-mer E-score” value was -0.326. With CTTTGTCC the “PBM 8-mer E-score” value was -0.0737. CAATCTGA was tested, and the “PBM 8-mer E-score” value was -0.0113. For CCCGCCCA, the “PBM 8-mer E-score” value was -0.00644. ACCAACAG was tested, and the “PBM 8-mer E-score” value was 0.0163. With ACCCCGCC the “PBM 8-mer E-score” value was -0.218. AACCTGGT was tested, and the “PBM 8-mer E-score” value was -0.0172. With ACCAGGAA the “PBM 8-mer E-score” value was -0.0655. ACACCCCT was tested, and the “PBM 8-mer E-score” value was -0.285. In the case of ACTAGCCT, the “PBM 8-mer E-score” value is reported as -0.076. With CCAGTTTA the “PBM 8-mer E-score” value was -0.0385. In the case of AACTTCTA, the “PBM 8-mer E-score” value is reported as 0.292. In the case of TAATACCA, the “PBM 8-mer E-score” value is reported as 0.336. With AGCGTCGG the “PBM 8-mer E-score” value was -0.209. For ACAGAGAG, the “PBM 8-mer E-score” value was -0.175. In the case of AGCGATAG, the “PBM 8-mer E-score” value is reported as -0.182. CCATGTTA was tested, and the “PBM 8-mer E-score” value was 0.135. CCTCGTAA was tested, and the “PBM 8-mer E-score” value was -0.0103. With CGCAGGCG the “PBM 8-mer E-score” value was -0.305. For ACGAGACC, the “PBM 8-mer E-score” value was -0.0801. AGGACCTA was tested, and the “PBM 8-mer E-score” value was -0.129. For TAGGCGAA, the “PBM 8-mer E-score” value was 0.0896. In the case of GCGGTCAC, the “PBM 8-mer E-score” value is reported as -0.249. For AGGTCACA, the “PBM 8-mer E-score” value was -0.21. In the case of AATGACAA, the “PBM 8-mer E-score” value is reported as 0.184. In the case of CAGGGCGG, the “PBM 8-mer E-score” value is reported as -0.209. With AACAACGA the “PBM 8-mer E-score” value was 0.144. In the case of ACTAGTGG, the “PBM 8-mer E-score” value is reported as -0.0174. In the case of AGTCTGTC, the “PBM 8-mer E-score” value is reported as -0.0632. In the case of AGAGACGG, the “PBM 8-mer E-score” value is reported as -0.306. In the case of AGGTGTGA, the “PBM 8-mer E-score” value is reported as -0.0136. With CGACGCAA the “PBM 8-mer E-score” value was -0.00367. With TCGCCGCA the “PBM 8-mer E-score” value was -0.141. ATAGCAAC was tested, and the “PBM 8-mer E-score” value was 0.0976. With AAGAGGGA the “PBM 8-mer E-score” value was -0.199. In the case of CCAGTTCC, the “PBM 8-mer E-score” value is reported as -0.215. In the case of CGGCGGCA, the “PBM 8-mer E-score” value is reported as -0.201. CGGCAGTC was tested, and the “PBM 8-mer E-score” value was -0.252. With TATAGCCA the “PBM 8-mer E-score” value was 0.0726. In the case of ATACGTTG, the “PBM 8-mer E-score” value is reported as 0.0544. With CGCATCAC the “PBM 8-mer E-score” value was -0.2. ATCTCGCC was tested, and the “PBM 8-mer E-score” value was -0.148. For TCCGGCCA, the “PBM 8-mer E-score” value was -0.199. In the case of AAACCTTT, the “PBM 8-mer E-score” value is reported as 0.203. For AAAGATCT, the “PBM 8-mer E-score” value was -0.0217. For TACTTATA, the “PBM 8-mer E-score” value was 0.389. For CATGTCGA, the “PBM 8-mer E-score” value was -0.0621. In the case of TAATTTGA, the “PBM 8-mer E-score” value is reported as 0.201. For CGTCAAAC, the “PBM 8-mer E-score” value was -0.0617. AACCGCTA was tested, and the “PBM 8-mer E-score” value was -0.0482. With CGCTGCGC the “PBM 8-mer E-score” value was -0.177. In the case of AAGTCGAA, the “PBM 8-mer E-score” value is reported as 0.0176. ATCAATAA was tested, and the “PBM 8-mer E-score” value was 0.308. In the case of GCTGTCCA, the “PBM 8-mer E-score” value is reported as -0.136. With CTTTGAAA the “PBM 8-mer E-score” value was 0.141. In the case of TCAGTCCA, the “PBM 8-mer E-score” value is reported as -0.282. For AACCAATT, the “PBM 8-mer E-score” value was 0.239. In the case of AAGCTAGT, the “PBM 8-mer E-score” value is reported as 0.0286. With TCTATGCA the “PBM 8-mer E-score” value was 0.0844. ACACTAAG was tested, and the “PBM 8-mer E-score” value was 0.0998. In the case of CACGCGTA, the “PBM 8-mer E-score” value is reported as -0.094. CTGTACCA was tested, and the “PBM 8-mer E-score” value was -0.181. For AATGCTGC, the “PBM 8-mer E-score” value was 0.0834. ATGACGTG was tested, and the “PBM 8-mer E-score” value was 0.0296. For ACGAAGCC, the “PBM 8-mer E-score” value was -0.177. In the case of GACCACGA, the “PBM 8-mer E-score” value is reported as -0.184. With GGCATTCA the “PBM 8-mer E-score” value was 0.0708. In the case of GCAGTGAC, the “PBM 8-mer E-score” value is reported as -0.231. GTGCTAGA was tested, and the “PBM 8-mer E-score” value was 0.0104. In the case of GGAAAAAC, the “PBM 8-mer E-score” value is reported as 0.00643. AGCGCAAA was tested, and the “PBM 8-mer E-score” value was 0.162. In the case of AACTAGAT, the “PBM 8-mer E-score” value is reported as 0.147. GACGGCGC was tested, and the “PBM 8-mer E-score” value was -0.269. With CCCATACC the “PBM 8-mer E-score” value was -0.191. In the case of GAACATCC, the “PBM 8-mer E-score” value is reported as -0.0729. TCCTTACA was tested, and the “PBM 8-mer E-score” value was 0.119. In the case of CGTCCTAC, the “PBM 8-mer E-score” value is reported as -0.053. For ATAGTAAT, the “PBM 8-mer E-score” value was 0.353. With AGACCAGG the “PBM 8-mer E-score” value was -0.185. AGTTACAA was tested, and the “PBM 8-mer E-score” value was 0.277.
